From patent US20250214977A1, “STAT6 INHIBITORS AND USES THEREOF” (Kymera Therapeutics, Inc., priority 2024, published 2025)

Target: T1, biotinylated truncated STAT6 (123-632)-avi (Homo sapiens, UniProt P42226)
T1 sequence (P42226 123-632 limits assumed): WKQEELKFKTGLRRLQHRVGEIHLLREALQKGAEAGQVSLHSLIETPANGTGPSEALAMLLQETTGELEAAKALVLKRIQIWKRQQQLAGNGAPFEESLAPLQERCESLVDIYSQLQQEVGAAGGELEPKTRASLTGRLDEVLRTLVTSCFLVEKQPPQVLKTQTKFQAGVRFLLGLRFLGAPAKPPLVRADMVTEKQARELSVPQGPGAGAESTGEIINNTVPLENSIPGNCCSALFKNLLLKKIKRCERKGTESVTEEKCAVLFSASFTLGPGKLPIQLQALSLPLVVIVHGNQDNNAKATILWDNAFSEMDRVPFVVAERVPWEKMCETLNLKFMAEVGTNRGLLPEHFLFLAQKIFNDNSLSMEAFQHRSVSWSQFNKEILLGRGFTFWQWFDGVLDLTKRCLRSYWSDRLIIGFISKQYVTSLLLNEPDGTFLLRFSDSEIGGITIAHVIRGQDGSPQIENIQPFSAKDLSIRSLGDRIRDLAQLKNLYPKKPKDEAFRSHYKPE
Test: Homogenous Time-Resolved Fluorescence (HTRF) binding assay
Conditions: 0.15 nM biotinylated truncated STAT6 (123-632)-avi, 20 nM fluorescein-labeled probe, 30 minutes at room temperature

Structure (SMILES)	IC50 [µM]
CCc1ccncc1-c1cc(C2=CCC[C@@H](C(=O)O)C2)c(F)c2[nH]c(C(=O)N3CCN(c4ncc(F)cc4OC)CC3)cc12 (single isomer, unassigned) [Example I-810]	> 100
CCC1CCCCC1c1cc(C2=CCCN(C(=O)CCn3ccnn3)C2)c(F)c2[nH]c(C(=O)N3CCN(c4ncc(F)cc4OC)CC3)cc12 (single isomer, unassigned) [Example I-1174]	1 to 10
CCC1CCCCC1c1cc(C2=CCCN(C(=O)CCn3ccnn3)C2)c(F)c2[nH]c(C(=O)N3CCN(c4ncc(F)cc4OC)CC3)cc12 (single isomer, unassigned) [Example I-1175]	0.1 to 1
CN(C)C(=O)c1cc2ccc([C@H]3CCCN(C(=O)CCn4ccnn4)C3)c(F)c2[nH]1 (single isomer, unassigned) [Example I-1187]	< 0.1
CNc1ccc(-c2cc([C@@H]3CCCN(C(=O)CCn4ccnn4)C3)cc3[nH]c(C(=O)N(C)C)cc23)c(OC)c1 (single isomer, unassigned) [Example I-1191]	1 to 10
CNc1ccc(-c2cc([C@H]3CCCN(C(=O)CCn4ccnn4)C3)cc3[nH]c(C(=O)N(C)C)cc23)c(OC)c1 (single isomer, unassigned) [Example I-1194]	< 0.1
CNC1(C(=O)N2CCC=C(c3ccc4oc(C(=O)N(C)C)cc4c3)C2)CCc2ccccc2C1 (stereo not shown) [Example I-5]	10 to 100
CN(C)C(=O)c1cc2cc(C3=CCCN(C(=O)C4Cc5c(N)cccc5CN4C=O)C3)ccc2o1 (stereo not shown) [Example I-8]	< 0.1
CN(C)C(=O)c1cc2ccc(C3=CCCN(C(=O)CCc4ccn(C)n4)C3)cc2[nH]1 [Example I-10]	> 100
CN(C)C(=O)c1cc2ccc(C3=CCCN(C(=O)[C@@H]4C[C@H]4c4ccn(C)n4)C3)cc2[nH]1 [Example I-11]	10 to 100
Cc1cnnn1CCC(=O)N1CCC=C(c2ccc3cc(C(=O)N(C)C)[nH]c3c2)C1 [Example I-12]	0.1 to 1
CN(C)C(=O)c1cc2ccc(C3=CCCN(C(=O)CCn4nncc4CO)C3)cc2[nH]1 [Example I-13]	10 to 100
CN(C)C(=O)c1cc2ccc(C3=CCCN(C(=O)CCc4nn[nH]n4)C3)cc2[nH]1 [Example I-15]	10 to 100
CN(C)C(=O)c1cc2ccc(C3=CCCN(S(=O)(=O)Cc4cccnn4)C3)cc2[nH]1 [Example I-16]	> 100
CN(C)C(=O)c1cc2ccc(C3=CCCN(C(=O)CCc4nnco4)C3)cc2[nH]1 [Example I-18]	> 100
CN(C)C(=O)c1cc2ccc(C3=CCCN(C(=O)CCc4ccon4)C3)cc2[nH]1 [Example I-20]	> 100
CN(C)C(=O)c1cc2ccc(C3=CCCN(C(=O)CCc4nnc[nH]4)C3)cc2[nH]1 [Example I-21]	10 to 100
CN(C)C(=O)c1cc2c(-c3ccc(O)cc3)cc(C3=CCCN(C(=O)CCn4ccnn4)C3)cc2[nH]1 [Example I-22]	< 0.1
C#Cc1cc(C2=CCCN(C(=O)CCn3ccnn3)C2)cc2cc(C(=O)N(C)C)oc12 [Example I-23]	0.1 to 1
C[C@@H](O)C(=O)N1CCC=C(c2ccc3cc(C(=O)N(C)C)[nH]c3c2)C1 [Example I-24]	10 to 100

Structure (SMILES)	IC50 [µM]
CN(C)C(=O)c1cc2ccc(C3=CCCN(C(=O)C4CC4F)C3)cc2[nH]1 (stereo not shown) [Example I-25]	> 100
CN(C)C(=O)c1cc2ccc(C3=CCCN(C(=O)C4CC4F)C3)cc2[nH]1 (stereo not shown) [Example I-26]	10 to 100
CN(C)C(=O)c1cc2ccc(C3=CCCN(C(=O)C4(O)CC4)C3)cc2[nH]1 [Example I-27]	10 to 100
CN(C)C(=O)c1cc2ccc(C3=CCCN(C(=O)C4CC(O)C4)C3)cc2[nH]1 (stereo not shown) [Example I-28]	10 to 100
CN(C)C(=O)c1cc2ccc(C3=CCCN(C(=O)C4CC(=O)N4)C3)cc2[nH]1 (stereo not shown) [Example I-30]	10 to 100
CN(C)C(=O)c1cc2ccc(C3=CCCN(C(=O)C4(O)CCCC4)C3)cc2[nH]1 [Example I-32]	10 to 100
CN(C)C(=O)c1cc2ccc(C3=CCCN(C(=O)c4n[nH]cc4I)C3)cc2[nH]1 [Example I-33]	10 to 100
CN(C)C(=O)c1cc2ccc(C3=CCCN(C(=O)c4c[nH]nc4I)C3)cc2[nH]1 [Example I-34]	10 to 100
Cc1nocc1C(=O)N1CCC=C(c2ccc3cc(C(=O)N(C)C)[nH]c3c2)C1 [Example I-35]	1 to 10
CN(C)C(=O)c1cc2ccc(C3=CCCN(C(=O)Cn4cncn4)C3)cc2[nH]1 [Example I-36]	10 to 100
CN(C)C(=O)c1cc2ccc(C3=CCCN(C(=O)Cn4ccnn4)C3)cc2[nH]1 [Example I-37]	1 to 10
CN(C)C(=O)c1cc2ccc(C3=CCCN(C(=O)Cc4c[nH]nn4)C3)cc2[nH]1 [Example I-38]	10 to 100
CN(C)C(=O)c1cc2ccc(C3=CCCN(C(=O)C4CCC4C(=O)O)C3)cc2[nH]1 (stereo not shown) [Example I-39]	10 to 100
CN(C)C(=O)c1cc2ccc(C3=CCCN(C(=O)C4CCCS4(=O)=O)C3)cc2[nH]1 (stereo not shown) [Example I-40]	10 to 100
Cc1nc(CC(=O)N2CCC=C(c3ccc4cc(C(=O)N(C)C)[nH]c4c3)C2)no1 [Example I-41]	10 to 100
CN(C)C(=O)c1cc2ccc(C3=CCCN(C(=O)CN4CCOC4=O)C3)cc2[nH]1 [Example I-42]	10 to 100
CN(C)C(=O)c1cc2ccc(C3=CCCN(C(=O)c4cn(C5CC5)nn4)C3)cc2[nH]1 [Example I-45]	10 to 100
CN(C)C(=O)c1cc2ccc(C3=CCCN(C(=O)CC(C)(O)C(F)(F)F)C3)cc2[nH]1 (stereo not shown) [Example I-46]	10 to 100
CN(C)C(=O)c1cc2ccc(C3=CCCN(C(=O)c4ccc(O)c(F)c4)C3)cc2[nH]1 [Example I-48]	10 to 100
CC(=O)c1cc(C(=O)N2CCC=C(c3ccc4cc(C(=O)N(C)C)[nH]c4c3)C2)n[nH]1 [Example I-49]	10 to 100

Structure (SMILES)	IC50 [µM]
CO[C@@H](C(=O)N1CCC=C(c2ccc3cc(C(=O)N(C)C)[nH]c3c2)C1)c1ccccc1 [Example I-50]	1 to 10
CN(C)C(=O)c1cc2ccc(C3=CCCN(C(=O)C(O)Cc4ccccc4)C3)cc2[nH]1 (stereo not shown) [Example I-51]	10 to 100
CC(C(=O)N1CCC=C(c2ccc3cc(C(=O)N(C)C)[nH]c3c2)C1)n1ccccc1=O (stereo not shown) [Example I-53]	0.1 to 1
CC(Oc1ccccn1)C(=O)N1CCC=C(c2ccc3cc(C(=O)N(C)C)[nH]c3c2)C1 (stereo not shown) [Example I-54]	10 to 100
CN(C)C(=O)c1cc2ccc(C3=CCCN(C(=O)C45CC(C(F)(F)F)(C4)C5)C3)cc2[nH]1 [Example I-55]	1 to 10
CN(C)C(=O)c1cc2ccc(C3=CCCN(C(=O)[C@@H]4C[C@H]4c4ccc(Br)cc4)C3)cc2[nH]1 [Example I-56]	10 to 100
CN(C)C(=O)c1cc2ccc(C3=CCCN(C(=O)c4[nH]nc5c4CS(=O)(=O)C5)C3)cc2[nH]1 [Example I-57]	10 to 100
CN(C)C(=O)c1cc2ccc(C3=CCCN(C(=O)c4ccc5c(n4)OCCO5)C3)cc2[nH]1 [Example I-58]	10 to 100
CN(C)C(=O)c1cc2ccc(C3=CCCN(C(=O)[C@H]4Cc5ccccc5CN4)C3)cc2[nH]1 [Example I-59]	10 to 100
CN(C)C(=O)c1cc2ccc(C3=CCCN(C(=O)C4NCCc5ccccc54)C3)cc2[nH]1 (stereo not shown) [Example I-60]	10 to 100
CN(C)C(=O)c1cc2ccc(C3=CCCN(C(=O)c4c(F)cccc4C(=O)O)C3)cc2[nH]1 [Example I-61]	10 to 100
CN(C)C(=O)c1cc2ccc(C3=CCCN(C(=O)c4cnn(C)c4C(F)(F)F)C3)cc2[nH]1 [Example I-62]	10 to 100
CN(C)C(=O)c1cc2ccc(C3=CCCN(C(=O)CCc4ccccc4C#N)C3)cc2[nH]1 [Example I-64]	10 to 100
CN(C)C(=O)c1cc2ccc(C3=CCCN(C(=O)CCS(=O)(=O)c4ccccc4)C3)cc2[nH]1 [Example I-66]	10 to 100
CN(C)C(=O)c1cc2ccc(C3=CCCN(C(=O)COc4ccc(C(=O)O)cc4)C3)cc2[nH]1 [Example I-67]	10 to 100
COC(=O)c1ccc(CCC(=O)N2CCC=C(c3ccc4cc(C(=O)N(C)C)[nH]c4c3)C2)[nH]1 [Example I-68]	10 to 100
CN(C)C(=O)c1cc2ccc(C3=CCCN(C(=O)c4cccnc4CS(C)(=O)=O)C3)cc2[nH]1 [Example I-69]	10 to 100
CNS(=O)(=O)c1cccc(C(=O)N2CCC=C(c3ccc4cc(C(=O)N(C)C)[nH]c4c3)C2)c1 [Example I-70]	10 to 100
CN(C)C(=O)c1cc2ccc(C3=CCCN(C(=O)C4ON=C(c5ccccc5)O4)C3)cc2[nH]1 (stereo not shown) [Example I-71]	10 to 100
CC(=O)OCC(C(=O)N1CCC=C(c2ccc3cc(C(=O)N(C)C)[nH]c3c2)C1)c1ccccc1 (stereo not shown) [Example I-73]	10 to 100

Same assay, conditions: 0.15 nM biotinylated truncated STAT6 (123-632)-avi, 20 nM fluorescein-labeled probe, 30 minutes room temperature

Structure (SMILES)	IC50 [µM]
COC(=O)c1cc2c(F)c([C@H]3CCCN(C(=O)CCn4cccn4)C3)cc(-c3ccc(N4CCN(C(=O)OC(C)(C)C)CC4)cc3)c2o1 (single isomer, unassigned) [Example I-1265]	10 to 100
CNc1ccc(-c2cc([C@H]3CCCN(C(C)=O)C3)c(F)c3[nH]c(C(=O)N(C)C)cc23)c(OC)c1 (single isomer, unassigned) [Example I-1649]	< 0.1
CNc1ccc(-c2cc([C@@H]3CCCN(C(C)=O)C3)c(F)c3[nH]c(C(=O)N(C)C)cc23)c(OC)c1 (single isomer, unassigned) [Example I-1650]	1 to 10
CN(C)C(=O)c1cc2ccc([C@@H]3CCCN(C(=O)CCn4ccnn4)C3)c(F)c2[nH]1 (single isomer, unassigned) [Example I-1667]	1 to 10
